The supplement of paper PMC11417369
± gives the standard deviation of the averaged measurements. The list shows a part of the results.

These sequences were tested on PfAP2-I AP2 domain 3 (GST-tagged) (assay: gcPBM binding intensity (ln(normalized median fluorescence intensity)); higher = stronger DNA binding).
Outline: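 After 1 h on an Agilent 4 × 180k array of primer-extended double-stranded 36-bp intergenic genomic probes and negative controls, bound GST-tagged P. falciparum DNA-binding domains were detected with Alexa488 anti-GST antibody and scanned at 488 nm. The domains had been expressed in E. coli, and binding took place in 1× PBS with 1% milk, 0.2 mg/ml BSA, 0.5% salmon testes DNA and 0.03% Triton X-100. Binding intensity is the highest Masliner-normalised natural-log median intensity across replicate spots of either probe orientation.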

Row | Sequence | gcPBM binding intensity (ln)
1 | ATAAATATAAAAATTTGTACATATATAGGTATAGGT [XGTACX_site1735] | 8.14 ± 0.6
2 | ATTGTTTATATTGATTGTACTCATTTTTTTTTTATT [XGTACX_site1946] | 8.1 ± 0.38
3 | ATATATTATATATATTACAACTTAAGAATATACATA [TGCATGCA_negctrl_site371] | 7.5 ± 0.18
4 | TCCTGTGATTATATAACACACATTATTGCTTATAAG [CACACA_site1518] | 8.05 ± 0.64
5 | ATAGTAAACGAAATAAAAAGATTAGCATAATATCCT [CACACA_negctrl_site1730] | 7.61 ± 0.79
6 | ATATATTGAAAAAAATGTACGTATTTTTTTATGTTA [XGTACX_site4654] | 7.92 ± 0.099
7 | ATTATATATATATATACACACACACCCTAAAAATAT [CACACA_site8463] | 8.29 ± 0.52
8 | AATCAAAATTAATTAACACACAATTTTAATATTCTT [CACACA_site2063] | 7.47 ± 0.58
9 | ACACATATATATTATTATTATATAATATATATATAT [CACACA_negctrl_site1545] | 8.62 ± 0.19
10 | ACATGTTTTATGTGCACACAAAGTTGTTATGAGGTT [CACACA_site4031] | 10.39 ± 0.078
11 | ATATAATATTTCATGTGGACACATTTTATGATTGTA [XGTACX_site8770] | 7.97 ± 0.47
12 | TTATTAAATTTTTTTTGTACTTATATATATATATAT [XGTACX_site2443] | 9.23 ± 0.18
13 | TATGAATGTATATGTTGTACATATAAATATTTATAT [XGTACX_site1146] | 7.72 ± 0.34
14 | ATTATTATATAGTGTGCATGCAATATTAATAAAACC [TGCATGCA_site245] | 8.79 ± 0.52
15 | AATAAATATATTACATATATGTGTAGTATTTTTTTA [TGCATGCA_negctrl_site268] | 7.58 ± 0.26
16 | TAAGCTTGTAACAGTTTACACACTAATATTTATAAA [CACACA_site3907] | 7.58 ± 0.42
17 | TATATATATATATATTGTACTAAATCATTTAAATGA [XGTACX_site8016] | 9.19 ± 0.57
18 | AAAAAACAAAAACACACGCACACAAAAAAAAAAAAA [CACACA_site802] | 8.29 ± 0.64
19 | CACAAATATACAAATACACACAAATATACACATATA [CACACA_site7176] | 7.67 ± 0.4
20 | ATGAAAATATTTAAAAGTACAGAAATATAAAACCTT [XGTACX_site403] | 7.88 ± 0.52
21 | TATTTTATACACTTGCTAAAACATTAACACATATGT [CACACA_negctrl_site1818] | 7.9 ± 0.55
22 | AAAATATTTATCATTTGTACTTAGATGTAAACTTGA [XGTACX_site1778] | 7.5 ± 0.33
23 | TATAAAATATAAATAAATAAATAAATATATATATAT [TGCATGCA_negctrl_site448] | 9.28 ± 0.26
24 | TCATATATTATATATTGTACAAAATAATAAGTATTT [XGTACX_site3987] | 7.64 ± 0.42
